# Reference: the supplement of paper PMC8728848
# Some of the results follow.
# B1: Sebin2 (Coprinopsis cinerea), A8PE78 (protein)
# chain: MTTPFYAYCHNVQDDNTWRLGLVFANRSTADEWWRAISEATSSIPITKSITRVTPQYYTHDIRVWNMYNFFVDGNIKSISDKFRGRLFITLEYDRSGRGVSVFPPLHIVDHVSGNWYYIRSKTAPHLFWFYDETRNAIYASKEKRTRFKVSIRNPSPQTPKDAIMINSDDVVIHIKESLYVGVDSYLGHIIPTRAYRTFKFGELEGGAIAGIEVAENAEERCSSTFDGASLYFVGPDSSSPGEPWELV
# Key:
# Assay in all cases: glycan array binding signal (z-score within array); higher = stronger binding
# Details in all cases: glycan notation: IUPAC condensed, linker removed
# [1] = biological target: Gal(a1-3)Gal(b1-4)GlcNAc
# Summary of the method: (§1)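 Arrays were curated from the Consortium for Functional Glycomics database, 3228 in total, and kept only where the protein sequence was available. Binding is expressed as a within-array Z-score. This score was averaged across arrays of the same protein sequence at different concentrations or buffers and across linkers, and negative values can be read as non-binding.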
# [2] = biological target: Gal(a1-3)Gal(b1-4)GlcNAc(b1-2)Man
# Summary of the method: as §1
# [3] = biological target: Gal(a1-3)Gal(b1-4)GlcNAc(b1-2)Man(a1-3)[Gal(a1-3)Gal(b1-4)GlcNAc(b1-2)Man(a1-6)]Man(b1-4)GlcNAc(b1-4)GlcNAc
# Summary of the method: as §1
# [4] = biological target: Gal(a1-3)Gal(b1-4)GlcNAc(b1-3)GalNAc
# Summary of the method: as §1
# [5] = biological target: Gal(a1-3)Gal(b1-4)GlcNAc(b1-6)GalNAc
# Summary of the method: as §1
# [6] = biological target: Gal(a1-3)Gal(b1-4)[Fuc(a1-3)]GlcNAc
# Summary of the method: as §1
# [7] = biological target: Gal(a1-3)Gal(b1-4)[Fuc(a1-3)]GlcNAc(b1-2)Man(a1-3)[Gal(a1-3)Gal(b1-4)[Fuc(a1-3)]GlcNAc(b1-2)Man(a1-6)]Man(b1-4)GlcNAc(b1-4)GlcNAc
# Summary of the method: as §1
# [8] = biological target: Gal(a1-3)GalNAc
# Summary of the method: as §1
# [9] = biological target: Gal(a1-3)[Gal(a1-4)]Gal(b1-4)GlcNAc
# Summary of the method: as §1
# [10] = biological target: Gal(a1-4)Gal(b1-3)GlcNAc(b1-2)Man(a1-3)[Gal(a1-4)Gal(b1-3)GlcNAc(b1-2)Man(a1-6)]Man(b1-4)GlcNAc(b1-4)GlcNAc
# Summary of the method: as §1
# [11] = biological target: Gal(a1-4)Gal(b1-4)Glc
# Summary of the method: as §1
# [12] = biological target: Gal(a1-4)Gal(b1-4)GlcNAc
# Summary of the method: as §1
# [13] = biological target: Gal(a1-4)Gal(b1-4)GlcNAc(b1-2)Man(a1-3)[Gal(a1-4)Gal(b1-4)GlcNAc(b1-2)Man(a1-6)]Man(b1-4)GlcNAc(b1-4)GlcNAc
# Summary of the method: as §1
# [14] = biological target: Gal(a1-4)Gal(b1-4)GlcNAc(b1-3)Gal(b1-4)Glc
# Summary of the method: as §1
# [15] = biological target: Gal(a1-4)GlcNAc
# Summary of the method: as §1
# [16] = biological target: Gal(a1-6)Glc
# Summary of the method: as §1
# [17] = biological target: Gal(b1-2)Gal
# Summary of the method: as §1
# [18] = biological target: Gal(b1-3)Gal
# Summary of the method: as §1
# [19] = biological target: Gal(b1-3)Gal(b1-4)GlcNAc
# Summary of the method: as §1
# [20] = biological target: Gal(b1-3)GalNAc
# Summary of the method: as §1
# [21] = biological target: Gal(b1-3)GalNAc(a1-3)[Fuc(a1-2)]Gal(b1-4)Glc
# Summary of the method: as §1
# [22] = biological target: Gal(b1-3)GalNAc(a1-3)[Fuc(a1-2)]Gal(b1-4)GlcNAc
# Summary of the method: as §1
# [23] = biological target: Gal(b1-3)GalNAc(b1-3)Gal
# Summary of the method: as §1
# [24] = biological target: Gal(b1-3)GalNAc(b1-3)Gal(a1-4)Gal(b1-4)Glc
# Summary of the method: as §1
# [25] = biological target: Gal(b1-3)GalNAc(b1-4)Gal(b1-4)Glc
# Summary of the method: as §1
# [26] = biological target: Gal(b1-3)GalNAc(b1-4)[Neu5Ac(a2-3)]Gal(b1-4)Glc
# Summary of the method: as §1
# [27] = biological target: Gal(b1-3)GlcNAc
# Summary of the method: as §1
# [28] = biological target: Gal(b1-3)GlcNAc(a1-3)Gal(b1-4)GlcNAc
# Summary of the method: as §1
# [29] = biological target: Gal(b1-3)GlcNAc(a1-6)Gal(b1-4)GlcNAc
# Summary of the method: as §1
# [30] = biological target: Gal(b1-3)GlcNAc(b1-2)Man
# Summary of the method: as §1
# [31] = biological target: Gal(b1-3)GlcNAc(b1-2)Man(a1-3)[Gal(b1-3)GlcNAc(b1-2)Man(a1-6)]Man(b1-4)GlcNAc(b1-4)GlcNAc
# Summary of the method: as §1
# [32] = biological target: Gal(b1-3)GlcNAc(b1-2)Man(a1-3)[Gal(b1-3)GlcNAc(b1-2)Man(a1-6)]Man(b1-4)GlcNAc(b1-4)[Fuc(a1-6)]GlcNAc
# Summary of the method: as §1
# [33] = biological target: Gal(b1-3)GlcNAc(b1-2)Man(a1-3)[GlcNAc(b1-4)][Gal(b1-3)GlcNAc(b1-2)Man(a1-6)]Man(b1-4)GlcNAc(b1-4)GlcNAc
# Summary of the method: as §1
# [34] = biological target: Gal(b1-3)GlcNAc(b1-2)[Gal(b1-3)GlcNAc(b1-6)]Man(a1-6)[Gal(b1-3)GlcNAc(b1-2)Man(a1-3)]Man(b1-4)GlcNAc(b1-4)GlcNAc
# Summary of the method: as §1
# [35] = biological target: Gal(b1-3)GlcNAc(b1-3)Gal(b1-3)GlcNAc
# Summary of the method: as §1
# [36] = biological target: Gal(b1-3)GlcNAc(b1-3)Gal(b1-4)Glc
# Summary of the method: as §1
# [37] = biological target: Gal(b1-3)GlcNAc(b1-3)Gal(b1-4)GlcNAc
# Summary of the method: as §1
# [38] = biological target: Gal(b1-3)GlcNAc(b1-3)Gal(b1-4)GlcNAc(b1-2)Man(a1-3)[Gal(b1-3)GlcNAc(b1-3)Gal(b1-4)GlcNAc(b1-2)Man(a1-6)]Man(b1-4)GlcNAc(b1-4)GlcNAc
# Summary of the method: as §1
# [39] = biological target: Gal(b1-3)GlcNAc(b1-3)Gal(b1-4)GlcNAc(b1-2)[Gal(b1-3)GlcNAc(b1-3)Gal(b1-4)GlcNAc(b1-6)]Man(a1-6)[Gal(b1-3)GlcNAc(b1-3)Gal(b1-4)GlcNAc(b1-2)Man(a1-3)]Man(b1-4)GlcNAc(b1-4)[Fuc(a1-6)]GlcNAc
# Summary of the method: as §1
# [40] = biological target: Gal(b1-3)GlcNAc(b1-3)Gal(b1-4)GlcNAc(b1-3)Gal(b1-4)GlcNAc(b1-2)[Gal(b1-3)GlcNAc(b1-3)Gal(b1-4)GlcNAc(b1-3)Gal(b1-4)GlcNAc(b1-6)]Man(a1-6)[Gal(b1-3)GlcNAc(b1-3)Gal(b1-4)GlcNAc(b1-3)Gal(b1-4)GlcNAc(b1-2)Man(a1-3)]Man(b1-4)GlcNAc(b1-4)[Fuc(a1-6)]GlcNAc
# Summary of the method: as §1
# [41] = biological target: Gal(b1-3)GlcNAc(b1-3)Gal(b1-4)GlcNAc(b1-6)[Gal(b1-3)GlcNAc(b1-3)]Gal(b1-4)Glc
# Summary of the method: as §1
# [42] = biological target: Gal(b1-3)GlcNAc(b1-3)Gal(b1-4)[Fuc(a1-3)]GlcNAc
# Summary of the method: as §1
# [43] = biological target: Gal(b1-3)GlcNAc(b1-3)Gal(b1-4)[Fuc(a1-3)]GlcNAc(b1-6)[Gal(b1-3)GlcNAc(b1-3)]Gal(b1-4)Glc
# Summary of the method: as §1
# [44] = biological target: Gal(b1-3)GlcNAc(b1-3)GalNAc
# Summary of the method: as §1
# [45] = biological target: Gal(b1-3)GlcNAc(b1-6)Gal(b1-4)GlcNAc
# Summary of the method: as §1
binder,measurement,setting,value
B1,glycan array binding signal (z-score),[1],-0.418
same,glycan array binding signal (z-score),[2],-0.374
same,glycan array binding signal (z-score),[3],-0.078
same,glycan array binding signal (z-score),[4],0.034
same,glycan array binding signal (z-score),[5],-0.161
same,glycan array binding signal (z-score),[6],-0.524
same,glycan array binding signal (z-score),[7],-0.059
same,glycan array binding signal (z-score),[8],-0.537
same,glycan array binding signal (z-score),[9],0.228
same,glycan array binding signal (z-score),[10],-0.075
same,glycan array binding signal (z-score),[11],0.235
same,glycan array binding signal (z-score),[12],-0.24
same,glycan array binding signal (z-score),[13],0.333
same,glycan array binding signal (z-score),[14],-0.197
same,glycan array binding signal (z-score),[15],-0.432
same,glycan array binding signal (z-score),[16],-0.281
same,glycan array binding signal (z-score),[17],-0.151
same,glycan array binding signal (z-score),[18],-0.168
same,glycan array binding signal (z-score),[19],0.27
same,glycan array binding signal (z-score),[20],-0.281
same,glycan array binding signal (z-score),[21],-0.394
same,glycan array binding signal (z-score),[22],-0.521
same,glycan array binding signal (z-score),[23],-0.148
same,glycan array binding signal (z-score),[24],0.232
same,glycan array binding signal (z-score),[25],-0.071
same,glycan array binding signal (z-score),[26],-0.265
same,glycan array binding signal (z-score),[27],-0.383
same,glycan array binding signal (z-score),[28],0.038
same,glycan array binding signal (z-score),[29],0.015
same,glycan array binding signal (z-score),[30],-0.233
same,glycan array binding signal (z-score),[31],0.372
same,glycan array binding signal (z-score),[32],-0.246
same,glycan array binding signal (z-score),[33],-0.222
same,glycan array binding signal (z-score),[34],1.02
same,glycan array binding signal (z-score),[35],-0.397
same,glycan array binding signal (z-score),[36],-0.226
same,glycan array binding signal (z-score),[37],-0.315
same,glycan array binding signal (z-score),[38],-0.414
same,glycan array binding signal (z-score),[39],-0.058
same,glycan array binding signal (z-score),[40],0.29
same,glycan array binding signal (z-score),[41],-0.117
same,glycan array binding signal (z-score),[42],-0.448
same,glycan array binding signal (z-score),[43],-0.311
same,glycan array binding signal (z-score),[44],-0.075
same,glycan array binding signal (z-score),[45],-0.138
